Measurements as given in the supplement of paper PMC11417369.
± gives the standard deviation of the averaged measurements. The list shows a part of the results.

What follows are sequences tested on PfAP2-I AP2 domain 3 (GST-tagged) (assay: gcPBM binding intensity (ln(normalized median fluorescence intensity)); higher = stronger DNA binding).
Method in brief: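 The binding buffer was 1× PBS containing 1% milk, 0.2 mg/ml BSA, 0.5% salmon testes DNA and 0.03% Triton X-100. In it, GST-tagged P. falciparum DNA-binding domains expressed in E. coli were applied for 1 h to an Agilent 4 × 180k array of primer-extended double-stranded 36-bp intergenic genomic probes plus negative controls. Binding intensity, read with Alexa488 anti-GST antibody and a 488 nm scan, is the highest Masliner-normalised natural-log median intensity across replicate spots of either probe orientation.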

Row | Sequence | gcPBM binding intensity (ln)
1 | ACATATGGCACATATGTACACACGTATAGATAATAT [CACACA_site2024] | 9.05 ± 0.22
2 | CTAAAAAAATAATAAAGTACACAAACGAATATATAA [XGTACX_site668] | 8.03 ± 0.41
3 | TTGAAAAATCAGCACACACACAAATACATACATATT [CACACA_site7505] | 8.03 ± 0.48
4 | TTTTTTTTTTTTTTTGCACACTATATTTAATATAAG [CACACA_site2444] | 9.42 ± 0.21
5 | CTTTTTTGGTACATCACACATTTTTACATTCCCTTT [CACACA_site4957] | 8.19 ± 0.61
6 | TTAATAGTGGAAATATGTACATAATTTTGGTCTTTT [XGTACX_site1664] | 8.07 ± 0.54
7 | CTGTTCAAAATATGAACACACACATATATATATATA [CACACA_site8638] | 9.34 ± 0.3
8 | CCATATTTAATAAAATGTACTCATTCTTTTATTTTA [XGTACX_site7802] | 7.67 ± 0.67
9 | CACATAAAAAAATAAACACACATATGTATATAAATA [CACACA_site7483] | 7.71 ± 0.57
10 | CTTTAAATGATGTAAACACACACATATACATTATTA [CACACA_site9035] | 7.7 ± 0.42
11 | TAAAAAAAAATAAAAAGTACATATATATATATATAT [XGTACX_site1155] | 9.26 ± 0.27
12 | AATGGAAAAATAGGCACACACACATAAATACAGATA [CACACA_site4844] | 8.01 ± 0.5
13 | AGTGCTACTCATGATTGAATAGAGGAAAAGGCGGTG [GTGCAC_negctrl_site49] | 8 ± 0.53
14 | AATATGAAACAAGACGCACACATAAATAAATAAATA [CACACA_site326] | 8.29 ± 0.6
15 | ACAAAATATTTTTCTTCACACATCCATTCAACATTT [CACACA_site5886] | 8.06 ± 0.62
16 | ACAAAAAAAAAAAAAATACACACACATAAAAAAAAA [TGCATGCA_negctrl_site333] | 7.87 ± 0.76
17 | TATATATATATATATATTAATAATTAATATAAAAGA [XGTACX_negctrl_site32] | 9.29 ± 0.31
18 | AATCAAAACATTAAAAAGAAAAAATATATATATATA [CACACA_negctrl_site366] | 9.41 ± 0.38
19 | TATAAATGATTAATTTGTACATATTTTACTTAATTG [XGTACX_site5271] | 7.26 ± 0.42
20 | CCATTCAAATTTCGCACACACATACAAAAAAAAAAA [CACACA_site3093] | 8.49 ± 0.35
21 | TAAATAAATAAATATATATATATATATATATATATA [XGTACX_negctrl_site70] | 9.5 ± 0.96
22 | TTGATGATATCATTTTGTACTTATACGTATTTAAAA [XGTACX_site148] | 7.75 ± 0.35
23 | GATTCCTTTAACCCTGCACACATACATACATTTATA [CACACA_site9308] | 8.75 ± 0.98

Row | Sequence | gcPBM binding intensity (ln)
24 | TATATTTCTTATTACATACACACATATACATATATG [CACACA_site3202] | 7.88 ± 0.47
25 | TAATAATATAATAATACACACTCATTATATATATAA [CACACA_site6045] | 7.66 ± 0.4
26 | ATAGATGCATATTATACACACATATGTAAATACATT [CACACA_site4691] | 7.84 ± 0.67
27 | CCACTATATAAAATCACACATTTATATTATACATAT [CACACA_site4570] | 7.72 ± 0.65
28 | ATAATAGTTAAATGTACACACTAACTACATGGAATA [CACACA_site5753] | 7.92 ± 0.4
29 | TTGAAGTTAATAAAAACTTTATACATGAAATTATTT [CACACA_negctrl_site684] | 7.26 ± 0.53
30 | AAAAAAAGAAATTAGGTGCATAGCATTAACCGATAA [GTGCAC_site9582] | 9.415 ± 0.078
31 | TTTATTTTAATTTATTGTACATTGTTATCAAGTGCA [XGTACX_site1110] | 7.67 ± 0.59
32 | TATTGGTAATGTAAATGTACATATAGATATTTACAT [XGTACX_site1922] | 7.53 ± 0.53
33 | TTATATGTTTTGTGTACACAATTTATTAAATTAATA [CACACA_site5645] | 8.38 ± 0.16
34 | ATAGGAAAAAGTATTGGTACACATACATATACGTTA [XGTACX_site5819] | 7.55 ± 0.49
35 | TATATATTTTTTTCATGTACATATAAATTAATTAAA [XGTACX_site8680] | 7.96 ± 0.4
36 | ACACAAAAAATTAAGTGTACTCATCAAGAAAAAAAA [XGTACX_site3456] | 7.78 ± 0.52
37 | GATTTAATAGATACGAGTACAGAAATTGTATACATA [XGTACX_site7563] | 8.01 ± 0.26
38 | TACATATTTTTCTTTTCACACATGGAAAAAAAAGGT [CACACA_site5146] | 10.1 ± 0.54
39 | TATTTTTTTTTTCACTGTACATACAACAACAAATAT [XGTACX_site8835] | 8.1 ± 0.4
40 | CCCTTAATTTAAAACACACAAACAAATAAGTTAGTT [CACACA_site3793] | 7.68 ± 0.33
41 | AATATATTTATTATAACACACACATATATATATTAT [CACACA_site8264] | 7.89 ± 0.66
42 | ATATATATATATATATATATATATATATATAAGTGG [XGTACX_negctrl_site90] | 9.22 ± 0.54
43 | TATTAATTCATTTTTTTTTTTTTTTTTTTTTTTTTT [CACACA_negctrl_site1215] | 9.61 ± 0.14
44 | TTCATATTTCATATATGTACTTATGTTCAATATAGT [XGTACX_site3811] | 7.7 ± 0.2
45 | TTTTTTATGTTCAATTGTACATATACATATATATAT [XGTACX_site6013] | 8.95 ± 0.092
46 | TAATTACACTTTAAAAGTACATATATAATAACATTA [XGTACX_site379] | 8.05 ± 0.099

Row | Sequence | gcPBM binding intensity (ln)
47 | AAAATAAGCCATATACGTACATACATATATAAATAT [XGTACX_site4197] | 7.87 ± 0.32
48 | CAAACAATTAAACAAACACACATATACATGTATATA [CACACA_site2060] | 7.4 ± 0.42
49 | TATATAATATTACGTTGTACACTTTAATCTCCCTTC [XGTACX_site5577] | 8.1 ± 0.49
50 | ACTAATATGCAATATTGTACATATATATAGAAATAT [XGTACX_site5273] | 8.04 ± 0.49
51 | ACCATTTGAAAATTCACACACTTTATTTTGTTATAT [CACACA_site5976] | 8.11 ± 0.51
52 | AATATATCGCATAGTTGTACAGAATTTTTACTTTTA [XGTACX_site8192] | 7.83 ± 0.54
53 | ATTGAAAAATAAAAATGTACACATGTAGCATACCAT [XGTACX_site3275] | 8.01 ± 0.61
54 | TATAATCAATGCCAAAGTACATATTAATATATTTAT [XGTACX_site4558] | 7.51 ± 0.52
55 | CACTTTAATTTATGCACACATATGGAACAACAGCCA [CACACA_site994] | 10.2 ± 0.38
56 | TAAGTTTGTCAATCAACACACACCTATTTATTATAT [CACACA_site3919] | 7.57 ± 0.57
57 | CTTAAAATGATAATATGTACACATAAATAATATATA [XGTACX_site8330] | 7.72 ± 0.32
58 | TTTTTTGACATTCCTTTTAATAATTAACGAAAGGCA [GTGCAC_negctrl_site377] | 7.67 ± 0.55
59 | AAATACAAGGGACATGCATACCACTATTTTTTAAAT [TGCATGCA_site588] | 8.38 ± 0.46
60 | TTTATATAATAGTTATGTACTTAAACGAAAGATACA [XGTACX_site8495] | 8.01 ± 0.028
61 | AAAGATATTTTTATCTCACACATATAATATATATAT [CACACA_site5478] | 8.65 ± 0.11
62 | GCATATGTATATAATGTGCACATGGATTATATAAAA | 9.57 ± 0.4
63 | TATTTACAGACATGCGCACACATAAATAAATAATAG [CACACA_site2411] | 8.48 ± 0.66
64 | GTTACTGCATACATAACACACATATTCAAAACACAT [CACACA_site3502] | 8.49 ± 0.49
65 | TATAGAAAATTTATATGTACATATATATATATATAT [XGTACX_site4451] | 9.53 ± 0.76
66 | TAAAATTTAAGTTATACACACTTAAGTAACATCATC [CACACA_site6395] | 7.77 ± 0.57
67 | GAACTAATAATGAAAAGTACACATACACATATATAT [XGTACX_site6789] | 8 ± 0.67
68 | AAATGTATACACATGGTGCGTAATATATTATATATA [GTGCAC_site9877] | 10.4 ± 0.4
69 | CTACCAAATCTATAGACACACATATATATATATATT [CACACA_site2486] | 7.68 ± 0.36

Row | Sequence | gcPBM binding intensity (ln)
70 | TTCATTCAAATCCAAGCATGCTTTATTAAAAAATTA [TGCATGCA_site567] | 7.71 ± 0.32
71 | ATATATAATTCCCAAGTGCATTTATTTTAATTATTA | 10.2 ± 0.12
72 | AATAAATTTCAAAATTGTACTCATTTCCTTTCCCAA [XGTACX_site5887] | 7.69 ± 0.49
73 | TACGCCTATAACGGCTGTACACCTTACTTTTTTTAA [XGTACX_site6818] | 7.71 ± 0.73
74 | TATGATTTTTATATATGTACGTATGGTGTTTTACAA [XGTACX_site6100] | 8.11 ± 0.19
75 | TGTGAAATAAAATTTGTACACACATATATATATATA [CACACA_site8093] | 9.45 ± 0.3
76 | TTCTTCTGTTTTATTACACACCATTTTGTGTCTACA [CACACA_site8643] | 8.47 ± 0.6
77 | CTCTATATATTATTATGTACTAAATGTATGTATGTA [XGTACX_site7151] | 8.25 ± 0.27
78 | AAAACACAATTTATTACACACATATATTATATATTA [CACACA_site1420] | 7.75 ± 0.52
79 | ATGAATGAATAAAGAAGTACGGAAATATTAACAAAA [XGTACX_site4695] | 8.22 ± 0.74
80 | TAACACACTAAGAAAAGTACTGATTAATATAATTTT [XGTACX_site5536] | 7.55 ± 0.59
81 | ATAACATACATAACAACACACAATATTTATCTGTAT [CACACA_site4279] | 7.99 ± 0.44
82 | ATTCCTGGACCGTTCATGCACTTGCAGAACGTCCAT | 8.96 ± 0.47
83 | TTTATGAAATGTTGCACACAAAAAACAACATGTTTT [CACACA_site1440] | 8.82 ± 0.014
84 | AAATGATATAAATTATAAAATGGATTTTTTCCATTG [CACACA_negctrl_site420] | 7.28 ± 0.42
85 | TTTAAAAATTAATTCTGTACACATTTTTATTATATT [XGTACX_site4212] | 7.93 ± 0.23
86 | AAAAAAAAAAAAAGTGCACACGATTTAAGGCCTATA [CACACA_site2823] | 9.79 ± 0.099
87 | ATATATATATATATATGTACACATATATTTCTTTTC [XGTACX_site3443] | 9.52 ± 0.38
88 | ATAAAATTTTATATGGGTACATAATATAATATATAT [XGTACX_site8160] | 8.06 ± 0.35
89 | ATTTTATAATTTATATCACACACATATATATATAGT [CACACA_site7885] | 7.89 ± 0.49
